Results are given in words; binding and its absence hold for the method and conditions named. Some results given as binding are weak or reduced against the parent protein; the word gives no strength.

The results in this text go back to PMC7297730.

In experiment [1] the target is T1, pGBKT7-Nse3(aa1-328) (S. pombe) (UniProt Q9Y7U4).
T1 sequence: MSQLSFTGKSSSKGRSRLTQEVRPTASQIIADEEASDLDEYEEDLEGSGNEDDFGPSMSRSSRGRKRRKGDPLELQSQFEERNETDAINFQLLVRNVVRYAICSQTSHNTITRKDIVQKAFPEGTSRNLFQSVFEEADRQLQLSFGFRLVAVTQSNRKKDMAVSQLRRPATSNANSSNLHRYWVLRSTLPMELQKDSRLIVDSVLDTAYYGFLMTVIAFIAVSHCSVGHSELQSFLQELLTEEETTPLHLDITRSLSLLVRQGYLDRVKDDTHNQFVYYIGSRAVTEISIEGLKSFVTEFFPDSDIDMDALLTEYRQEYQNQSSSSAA
Description: two-hybrid; classical Y2H of the Nse3-Nse4 binary interaction (Fig. 4A, columns 3 and 4; Fig. 5A, column 4).

Experiment [2] concerns the target T1, pGBKT7-Nse3(aa1-328) (S. pombe). The experiment in a line: two-hybrid; 3Y2H of the Nse1-Nse3-Nse4 trimer: hybrid Nse3 and Nse4 with non-hybrid Nse1/Q18A, M21A (Fig. 4A, columns 7 and 8).
For experiment [3] the target is unchanged. The experiment in a line: two-hybrid; 3Y2H of the Nse1-Nse3-Nse4 trimer: hybrid Nse3 and Nse4 with non-hybrid Nse1 wild type (Fig. 4A, columns 5 and 6; Fig. 5A, column 6).
In experiment [4] the target is T2, pGADT7-Nse4(aa1-300)/WT (S. pombe) (UniProt Q6BDR8).
T2 sequence: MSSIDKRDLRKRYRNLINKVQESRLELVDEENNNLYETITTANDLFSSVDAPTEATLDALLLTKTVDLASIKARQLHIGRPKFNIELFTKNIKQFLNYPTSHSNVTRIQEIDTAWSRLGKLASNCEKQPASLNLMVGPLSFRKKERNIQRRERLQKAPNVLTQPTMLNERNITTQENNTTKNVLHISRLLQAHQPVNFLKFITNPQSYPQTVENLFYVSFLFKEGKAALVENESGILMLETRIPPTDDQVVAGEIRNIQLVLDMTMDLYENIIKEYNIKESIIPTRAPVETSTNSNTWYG
The description is as above.

Experiment [5] has as its target T3, Nse5-Nse6 (Gal4BD-Nse5 with non-hybrid Nse6) (S. pombe) (UniProt O94668+O13688).
T3 sequence 1: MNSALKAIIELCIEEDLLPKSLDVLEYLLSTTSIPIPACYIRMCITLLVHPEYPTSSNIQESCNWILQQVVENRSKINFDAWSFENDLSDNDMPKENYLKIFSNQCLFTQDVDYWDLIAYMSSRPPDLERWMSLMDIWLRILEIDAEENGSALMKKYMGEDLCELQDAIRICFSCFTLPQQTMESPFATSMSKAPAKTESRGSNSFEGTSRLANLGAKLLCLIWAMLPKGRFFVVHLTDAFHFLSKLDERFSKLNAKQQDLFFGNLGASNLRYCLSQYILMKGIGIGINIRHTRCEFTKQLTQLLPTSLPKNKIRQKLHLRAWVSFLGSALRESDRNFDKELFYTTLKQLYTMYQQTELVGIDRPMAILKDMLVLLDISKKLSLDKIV
T3 sequence 2: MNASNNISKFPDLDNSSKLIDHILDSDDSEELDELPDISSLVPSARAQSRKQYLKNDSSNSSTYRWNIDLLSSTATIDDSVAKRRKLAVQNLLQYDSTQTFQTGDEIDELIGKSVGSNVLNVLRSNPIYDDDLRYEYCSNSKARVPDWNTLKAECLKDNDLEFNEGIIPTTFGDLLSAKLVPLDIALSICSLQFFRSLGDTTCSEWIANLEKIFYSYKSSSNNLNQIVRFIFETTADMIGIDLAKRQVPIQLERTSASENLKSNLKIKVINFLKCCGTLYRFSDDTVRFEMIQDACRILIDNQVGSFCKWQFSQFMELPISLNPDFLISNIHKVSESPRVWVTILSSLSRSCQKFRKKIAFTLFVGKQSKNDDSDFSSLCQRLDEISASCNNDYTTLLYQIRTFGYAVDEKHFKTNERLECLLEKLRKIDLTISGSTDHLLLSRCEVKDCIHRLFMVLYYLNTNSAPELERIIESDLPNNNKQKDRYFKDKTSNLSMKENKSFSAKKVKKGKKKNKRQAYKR
Description: two-hybrid; 3Y2H: Gal4AD-SMC6 + Gal4BD-Nse5 + non-hybrid Nse6 (p416ADH1-Nse6); -L,T,U,H plates with 3 mM 3-aminotriazole.

Experiment [6] concerns the target T4, Nse4 (aa1-300), non-hybrid (S. pombe) (UniProt Q6BDR8).
T4 sequence: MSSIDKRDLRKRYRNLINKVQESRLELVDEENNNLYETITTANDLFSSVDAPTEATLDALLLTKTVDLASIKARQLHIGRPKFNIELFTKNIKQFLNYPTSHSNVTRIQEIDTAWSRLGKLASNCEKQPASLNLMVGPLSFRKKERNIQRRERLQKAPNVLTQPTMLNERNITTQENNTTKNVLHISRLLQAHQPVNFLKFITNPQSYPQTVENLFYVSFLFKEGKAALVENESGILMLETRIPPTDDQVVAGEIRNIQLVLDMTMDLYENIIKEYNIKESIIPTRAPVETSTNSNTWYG
Description: two-hybrid; 5Y2H: Gal4BD-SMC5 + Gal4AD-SMC6 + non-hybrid Nse4, Nse3 and Nse1 (p416ADH1-Nse4+Nse3+Nse1); plates with increasing 3-aminotriazole.

Experiment [7] addresses T5, Nse4 L62C, T65R double mutant, non-hybrid (S. pombe) (UniProt Q6BDR8).
T5 sequence: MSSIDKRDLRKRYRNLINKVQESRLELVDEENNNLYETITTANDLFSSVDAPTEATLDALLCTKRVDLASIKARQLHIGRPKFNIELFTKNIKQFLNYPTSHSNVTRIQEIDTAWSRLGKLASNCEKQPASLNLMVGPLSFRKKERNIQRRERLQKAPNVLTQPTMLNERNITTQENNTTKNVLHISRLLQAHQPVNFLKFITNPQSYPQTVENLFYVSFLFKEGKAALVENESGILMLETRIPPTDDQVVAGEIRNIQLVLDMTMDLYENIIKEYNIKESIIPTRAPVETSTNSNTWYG
Described as above.

The target in experiment [8] is T4, Nse4 (aa1-300), non-hybrid (S. pombe). Description: two-hybrid; 3Y2H: Gal4BD-SMC5 + Gal4AD-SMC6 + non-hybrid Nse4 (p416ADH1-Nse4); -L,T,U,H plates with 0.5 mM or increasing 3-aminotriazole, 28 °C.
In experiment [9] the target is T5, Nse4 L62C, T65R double mutant, non-hybrid (S. pombe). The description is as above.
For experiment [10], the target named is T6, Gal4BD-Nse4 (S. pombe) (UniProt Q6BDR8).
T6 sequence: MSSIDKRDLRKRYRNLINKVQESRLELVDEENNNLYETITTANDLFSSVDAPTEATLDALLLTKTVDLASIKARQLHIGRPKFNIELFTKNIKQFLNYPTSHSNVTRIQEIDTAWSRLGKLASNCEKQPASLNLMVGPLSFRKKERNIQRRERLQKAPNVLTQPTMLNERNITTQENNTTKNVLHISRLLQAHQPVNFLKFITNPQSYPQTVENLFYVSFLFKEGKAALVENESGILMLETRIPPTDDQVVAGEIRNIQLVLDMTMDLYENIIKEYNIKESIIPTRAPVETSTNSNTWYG
The experiment in a line: two-hybrid; 4Y2H: Gal4BD-Nse4 + Gal4AD-SMC6 + non-hybrid Nse1 and Nse3 (p416ADH1-Nse1+Nse3); -L,T,U,H plates with 0.3 mM 3-aminotriazole, 28 °C.

B1: pGADT7-Nse4(aa1-300)/WT (protein, UniProt Q6BDR8 1-300)
chain: MSSIDKRDLRKRYRNLINKVQESRLELVDEENNNLYETITTANDLFSSVDAPTEATLDALLLTKTVDLASIKARQLHIGRPKFNIELFTKNIKQFLNYPTSHSNVTRIQEIDTAWSRLGKLASNCEKQPASLNLMVGPLSFRKKERNIQRRERLQKAPNVLTQPTMLNERNITTQENNTTKNVLHISRLLQAHQPVNFLKFITNPQSYPQTVENLFYVSFLFKEGKAALVENESGILMLETRIPPTDDQVVAGEIRNIQLVLDMTMDLYENIIKEYNIKESIIPTRAPVETSTNSNTWYG
As to B1, the binding result in [1], in experiment [2] and in experiment [3] was “binds” each time.

B2: Nse1(aa1-232), non-hybrid (protein, UniProt Q53EK2 1-232)
chain: MEKERQDGLSDKHKFILQYIMCRTAGVDNEQVRELVQEQYGETATVEDVINELNNSLHNFDFKIKRVQDQLDGRLTLHFQNLSGDPVSQMATPYPPVQIELMRKIIEWIMKCDDYQYSLTTLQIQKLSRKEMGLAPSVIESHLHTFERDGWLRQREGIWTFTNHALAELDAYLHNEYESNLYECNACREIVIAGYVCDCGYCLHVYCCKHLAHVNCINCNTPWANATVIGRW
Regarding B2, the binding entry in [4] and in experiment [3] was “binds” in each case.

B3: Gal4AD-SMC6 (protein, UniProt P53692 1-1140)
chain: MTTELTNVSLEEAITEKTSENRRKRDSDVLQTEEVDLSNVKRIRASRNQDNRPERQSRLQRSSSLIEQVRGNEDGENDVLNQTRETNSNFDNRVGVIECIHLVNFMCHDSLKINFGPRINFVIGHNGSGKSAILTGLTICLGAKASNTNRAPNMKSLVKQGKNYARISVTISNRGFEAYQPEIYGKSITIERTIRREGSSEYRLRSFNGTVISTKRDELDNICDHMGLQIDNPMNILTQDTARQFLGNSSPKEKYQLFMKGIQLKQLEENYSLIEQSLINTKNVLGNKKTGVSYLAKKEEEYKLLWEQSRETENLHNLLEQKKGEMVWAQVVEVEKELLLAEKEFQHAEVKLSEAKENLESIVTNQSDIDGKISSKEEVIGRAKGETDTTKSKFEDIVKTFDGYRSEMNDVDIQKRDIQNSINAAKSCLDVYREQLNTERARENNLGGSQIEKRANESNNLQREIADLSEQIVELESKRNDLHSALLEMGGNLTSLLTKKDSIANKISDQSEHLKVLEDVQRDKVSAFGKNMPQLLKLITRETRFQHPPKGPMGKYMTVKEQKWHLIIERILGNVINGFIVRSHHDQLILKELMRQSNCHATVVVGKYDPFDYSSGEPDSQYPTVLKIIKFDDDEVLHTLINHLGIEKMLLIEDRREAEAYMKRGIANVTQCYALDPRNRGYGFRIVSTQRSSGISKVTPWNRPPRIGFSSSTSIEAEKKILDDLKKQYNFASNQLNEAKIEQAKFKRDEQLLVEKIEGIKKRILLKRREVNSLESQELSVLDTEKIQTLERRISETEKELESYAGQLQDAKNEEHRIRDNQRPVIEEIRIYREKIQTETQRLSSLQTELSRLRDEKRNSEVDIERHRQTVESCTNILREKEAKKVQCAQVVADYTAKANTRCERVPVQLSPAELDNEIERLQMQIAEWRNRTGVSVEQAAEDYLNAKEKHDQAKVLVARLTQLLQALEETLRRRNEMWTKFRKLITLRTKELFELYLSQRNFTGKLVIKHQEEFLEPRVYPANRNLATAHNRHEKSKVSVQGLSGGEKSFATICMLLSIWEAMSCPLRCLDEFDVFMDAVNRLVSIKMMVDSAKDSSDKQFIFITPQDMGQIGLDKDVVVFRLSDPVVSSSALPPSTAP
For B3, the binding result in experiment [5] is “binds”; in [6], “binds”; in experiment [7], “binds weakly”; in experiment [8], “binds”; in [9], “binds weakly”; in experiment [10] it was “binds”.
